Several values for one entry are separate records, joined by “and”; a condition that tells them apart may be missing. Equal entries are not always repeated. Screen size: about 420,000 compounds; about 64,000 (15%) were called active. Inconclusive results, whose numbers are uncertain, are shown with a selection of clear calls. The call rests on the fitted dose curve; in most records, active means well fitted inhibition curve with a large enough effect; inconclusive means small, poorly fitted or top-dose-only effect; inactive means flat fitted curve, though single readings scatter. Potencies of inconclusive entries are left out as doubtful fits.
Assay: qHTS for Inhibitors of human tyrosyl-DNA phosphodiesterase 1 (TDP1): qHTS in cells in absence of CPT; further: nearly all actives have a fitted effect of over 55% in size
Conditions: DT40 Tdp1-/- hTDP1 cells, no CPT, ATP luminescence, 48 h; activity change, negative = growth inhibition: at 46.2 µM (top of the series) unless noted
In short: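 No-CPT arm: Tdp1-/-;hTDP1 DT40 cells (400/well) plus compounds, incubated ≥48 hr at 37 °C. Readout CellTiter-Glo luminescence.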
On the % scale 0 is the no-effect control and ±100 the full control effect; potency means the concentration at half of the fitted maximal effect; tags describe the fitted curve by direction and shape.

Structure (SMILES)	Potency	activity change, negative = growth inhibition
C=Cn1cc[n+](CC(=O)c2cc(C(C)(C)C)c(O)c(C(C)(C)C)c2)c1	active: 16.4 µM	
CC1CC(C)CN(S(=O)(=O)c2ccc(NC(=O)[C@@H]3CCCN3C(=O)c3cccs3)cc2)C1 (stereo partly drawn)	inconclusive [inhibitor, single point]	
COc1ccc(NC(=O)CN(C)S(=O)(=O)c2cnc[nH]2)cc1Cl	inactive	
C=CCn1c(SCc2cc(=O)n3cc(C)ccc3n2)nnc1-c1ccc(F)cc1	inconclusive [inhibitor, single point]	
Cc1ccc(-c2[nH]c(-c3ccccc3)nc2SCC(=O)NCC2CCCO2)cc1 (stereo not drawn)	active: 14.6 µM and active: 23.1 µM	
CSCCC1NC(=O)N(CC(=O)Nc2ccc3c(c2)OCCO3)C1=O (stereo not drawn)	inactive	
COCCOC(=O)C1=C(C)NC2=C(C(=O)CC(c3cccs3)C2)C1c1ccsc1 (stereo not drawn)	inconclusive [inhibitor, partial curve, poor fit]	
O=c1c2sc3nc(N4CCOCC4)c4c(c3c2nnn1Cc1ccccc1)CCCC4		inconclusive: -33.5% [inhibitor]
O=C(CN1C(=O)NC2(CCCc3ccccc32)C1=O)Nc1cccc(S(=O)(=O)N2CCCCC2)c1 (stereo not drawn)	active: 16.4 µM	
COC(=O)CCCC(=O)N1CCCC(CCC(=O)NCc2ccc(F)c(F)c2)C1 (stereo not drawn)	inactive	
CC(C)(C)c1ccc(-n2ncc3c2CCCC3NC(=O)c2ccncc2)cc1 (stereo not drawn)	active: 10.3 µM	
O=S(=O)(NCCSc1nnc(-c2ccco2)n1-c1ccccc1)c1ccccc1	inconclusive [inhibitor, single point]	
O=C(c1[nH]c(C(F)(F)F)nc1-c1ccccc1)N1CCCN(Cc2ccc(F)cc2)CC1	inactive	
O=C(CCNS(=O)(=O)c1ccc(OC(F)(F)F)cc1)N1CCN(S(=O)(=O)c2cccc(F)c2)CC1	inconclusive [inhibitor, partial curve]	
O=C(Nc1ccncc1)c1cc(S(=O)(=O)N2CCCC2)ccc1Cl	inconclusive [inhibitor, single point]	
Cn1c(Oc2ccccc2NCc2cc(Br)ccc2O)cc(=O)n(C)c1=O	active: 23.1 µM	
O=C(Oc1ccc[nH]c1=O)c1cccc(Cl)c1	inconclusive [inhibitor, single point]	
O=C(OCC(=O)N1CCCC1)c1ccc(OC(F)(F)F)cc1		inconclusive: -40.4% [inhibitor]
O=C1CCc2cc(S(=O)(=O)N3CCN(c4ccccc4F)CC3)ccc2N1	inconclusive [inhibitor, single point]	
COc1ccc(-c2noc(COc3ccc(Br)cc3C)n2)cc1OC	inconclusive [inhibitor, single point]	
Cn1c(C(=O)Nc2ccc3c(c2)OCCO3)cc2c(=O)n(C)c3ccccc3c21	active: 11.6 µM	
O=C(Nc1nccs1)c1ncc(Cl)c(Cl)c1Cl	active: 14.6 µM	

Structure (SMILES)	Potency	activity change, negative = growth inhibition
CCCN1CCN(C(=O)c2oc3ccccc3c2NC(=O)COc2ccc(OC)cc2)CC1	inconclusive [inhibitor, single point]	
COC(=O)CCCC1=CC2=CC(=O)C(C)(OC(=O)c3cccs3)C(=O)C2=CN1C1CC1 (stereo not drawn)	inactive	
CC(C)CCC(CCNCc1ccccn1)c1ccc2c(c1)OCO2 (stereo not drawn)	inconclusive [inhibitor, partial curve, poor fit]	
C=CCNC(=S)Nc1ccc(Cl)cc1	inconclusive [inhibitor, single point]	
COc1ccc(OC)c(NC2=C(Cl)C(=O)N(Cc3ccccc3)C2=O)c1	inconclusive [inhibitor, single point]	
COC(=O)c1ccc(CSC2=NC[C@@H]3[C@@H]4C(=O)N(C)C(=O)[C@@H]4[C@](Cc4ccccc4)(C(=O)OC)N23)cc1	inconclusive [inhibitor, single point]	
C1CCN2CC3CC(CN4CCCC[C@@H]34)[C@H]2C1	inconclusive [inhibitor, full curve]	
O=C(c1ccco1)N1CCN(C(=O)C2CC(c3ccc(Cl)c(Cl)c3)=NO2)CC1 (stereo not drawn)	inconclusive [inhibitor, single point]	
CCc1ccc(OCC(=O)Nc2ccc(-c3nc4ncccc4o3)cc2)cc1	inactive	
CCN(CC)S(=O)(=O)c1ccc(C(=O)NCC(c2cccs2)N2CCOCC2)cc1 (stereo not drawn)	inactive	
CC(=O)c1ccc(C(=O)N2CCc3c([nH]c4ccccc34)C2c2cccc(C)n2)s1 (stereo not drawn)	active: 14.6 µM	
C[C@]12CCC(=O)C[C@@H]1CC[C@@H]1[C@@H]2CC[C@]2(C)C=CC[C@@H]12	inconclusive [inhibitor, single point]	
Cc1ccc(NC(=O)CN2CCC(NC(=O)C3CCCCC3)CC2)c(Br)c1	active: 20.6 µM	
CCOC(=O)/C(C#N)=C\c1cc(OC)c(OC)cc1[N+](=O)[O-]	inconclusive [inhibitor, single point]	
CC(C)[C@@H](C(=O)NCc1ccco1)N1C(=O)N2CCc3c([nH]c4ccccc34)[C@@]2(C)C1=O	inconclusive [inhibitor, single point]	
CCN(CC)S(=O)(=O)c1ccc(N2CCc3cc(OC)c(OC)cc3C2)nc1	inconclusive [inhibitor, single point]	
CN(C)S(=O)(=O)c1cc(NC(=O)CSc2cccc[n+]2[O-])ccc1Cl	inactive	
Cc1ccc(NC(=O)CCNS(=O)(=O)c2cc(Br)cnc2N)cc1Cl	inconclusive [inhibitor, single point]	
Cc1cc(O)ccc1N/C=C(\C#N)c1nc2ccccc2o1	active: 11.6 µM	
O=C(CN1CCC(n2nnc3cc(F)ccc32)CC1)N1CCCc2ccccc21	inconclusive [inhibitor, single point]	
O=C(CCCCn1c(=O)c2ccccc2n(CC(=O)Nc2ccc(F)cc2)c1=O)NCc1ccco1	inconclusive [inhibitor, single point]	

Source: PubChem BioAssay AID686978 (National Center for Advancing Translational Sciences (NCATS), 2013)
